Source: paper PMC4336329 (PLoS ONE, 2015)
In all, about 310,000 compounds went through this assay and about 14,000 (4.5%) showed an effect of 50% or more. The effect is printed as a negative number. The list shows a part of the results.

Target: human ether-à-go-go-related gene (hERG) potassium channel (human, UniProt Q12809)
Assay: primary screen, population patch clamp on CHO cells stably expressing hERG
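Further: peak tail current of the secondary pulse compared with the same well before compound.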

human ether-à-go-go-related gene (hERG) potassium channel, sequence (Q12809 whole entry, looked up): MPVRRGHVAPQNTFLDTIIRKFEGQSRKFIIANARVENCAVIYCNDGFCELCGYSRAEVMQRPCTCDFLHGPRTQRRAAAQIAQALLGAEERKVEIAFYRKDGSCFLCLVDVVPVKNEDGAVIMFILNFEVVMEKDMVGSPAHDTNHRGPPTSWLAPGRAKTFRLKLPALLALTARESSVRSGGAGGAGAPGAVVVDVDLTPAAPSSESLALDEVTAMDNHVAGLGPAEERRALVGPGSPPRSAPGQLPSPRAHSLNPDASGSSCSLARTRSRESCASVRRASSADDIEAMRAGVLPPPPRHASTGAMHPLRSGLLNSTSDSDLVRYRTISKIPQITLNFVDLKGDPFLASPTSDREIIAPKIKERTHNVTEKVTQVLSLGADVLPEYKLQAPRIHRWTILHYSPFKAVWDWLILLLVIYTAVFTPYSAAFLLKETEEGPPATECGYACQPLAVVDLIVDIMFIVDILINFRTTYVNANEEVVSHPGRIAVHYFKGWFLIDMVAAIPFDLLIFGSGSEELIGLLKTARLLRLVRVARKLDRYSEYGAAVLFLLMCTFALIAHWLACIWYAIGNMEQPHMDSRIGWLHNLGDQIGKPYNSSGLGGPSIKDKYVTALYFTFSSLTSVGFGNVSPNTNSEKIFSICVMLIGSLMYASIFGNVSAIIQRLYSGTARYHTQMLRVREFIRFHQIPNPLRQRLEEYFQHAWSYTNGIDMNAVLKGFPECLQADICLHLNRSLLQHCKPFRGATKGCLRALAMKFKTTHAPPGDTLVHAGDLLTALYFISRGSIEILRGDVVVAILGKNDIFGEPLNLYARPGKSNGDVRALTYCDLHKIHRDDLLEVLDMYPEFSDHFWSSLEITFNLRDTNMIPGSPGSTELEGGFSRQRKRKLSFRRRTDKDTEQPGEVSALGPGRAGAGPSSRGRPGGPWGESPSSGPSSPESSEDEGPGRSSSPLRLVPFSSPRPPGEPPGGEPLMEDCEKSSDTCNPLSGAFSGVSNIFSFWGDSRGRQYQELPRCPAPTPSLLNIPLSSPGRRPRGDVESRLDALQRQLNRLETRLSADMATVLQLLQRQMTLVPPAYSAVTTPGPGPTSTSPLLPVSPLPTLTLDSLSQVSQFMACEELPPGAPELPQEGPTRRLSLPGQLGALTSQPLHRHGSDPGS

Row | SMILES | hERG current change (%, negative = inhibition) at 10uM [%]
1 | COc1cc(CN2CCC(C(=O)NCC(C)(C)CN(C)C)CC2)ccc1OCc1ccccc1.O=C(O)C(=O)O | 13.6
2 | Cc1c(Cl)cccc1NC(=S)NN | 10.2
3 | CC(C)Cc1nc(SCC(=O)Nc2nnc(CC(C)C)s2)n[nH]1 | -10.8
4 | O=C(CO/N=C/c1c(Cl)cccc1Cl)NNC(=O)c1cccc(Cl)c1 | 7.18
5 | O=S(=O)(c1ccc(F)cc1)N1CCN(c2ccc(-c3ccccc3)nn2)CC1 | 1.27
6 | CC1C(=NO)C(C)C(c2ccccc2)NC1c1ccccc1 (centres unmarked) | -16.6
7 | O=C1NC(Nc2nccs2)(C(F)(F)F)C(=O)N1CCc1ccccc1 (centres unmarked) | 3.44
8 | CCCn1c(N)c(C(=O)CSc2nnc(-c3cccnc3)n2-c2ccc(C)cc2C)c(=O)[nH]c1=O | 0.586
9 | Nc1n[nH]c(CCCO)n1 | 22.9
10 | Cc1ccc(C(=O)O)cc1NC(=O)c1ccc2c(c1)C(=O)N(c1ccc([N+](=O)[O-])cc1)C2=O | 20.3
11 | Cc1noc(C)c1CSc1nc2sc(C)c(C)c2c(=O)n1-c1ccccc1 | 22.6
12 | NC(=O)Cn1cc(C(=O)C(=O)N2CCOCC2)c2ccccc21 | 1.6
13 | O=C(CN1CCN(c2ccccc2)CC1)Nc1ccccc1Sc1ccccc1 | 9.55
14 | CC(O)CNc1nc2c(c(=O)n(Cc3ccc(Cl)cc3)c(=O)n2C)n1C (centres unmarked) | -7.54
15 | CC(=O)/C(=N\Nc1ccc(Cl)cc1Cl)Sc1nnc(-c2ccccc2)n1-c1ccccc1 | 13
16 | CCN(CC(=O)Nc1ccc(NC(C)=O)cc1)C(=O)c1ccccc1SCc1c(C)noc1C | 2.73
17 | COc1ccc(OC)c(CN2CCN(Cc3cc(=O)oc4cc(O)ccc34)CC2)c1 | -74.8
18 | OCC[C@H]1C[C@@H](O)[C@H](O)[C@]2(OCCc3ccccc32)O1 | -0.605
19 | O=C(OCc1ccccc1)N1CCCC1/C=C/CN1CCOCC1 (centres unmarked) | -1.77

Row | SMILES | hERG current change (%, negative = inhibition) at 10uM [%]
20 | CN(C(=O)/C=C/c1ccco1)c1ccccc1C(=O)O | 4.96
21 | CCOC(=O)C1CCCN(c2nc3ccccc3nc2C(C#N)C(=O)NCc2ccccc2)C1 (centres unmarked) | 5.21
22 | CCc1noc(C)c1C(=O)Nc1ccc(Cl)c(S(=O)(=O)N2CCCCC2)c1 | -71.2
23 | CCCNC(=O)Cc1c(OC)ccc2cc(Br)ccc12 | -0.00892
24 | O=C(Nc1cccc(-c2cccc(Cl)c2)c1)C1CCN(Cc2ccon2)CC1 | -52.7
25 | O=c1c(C(c2ccc(O)cc2)c2c(O)nc3n(c2=O)CCCS3)c(O)nc2n1CCCS2 | -5.63
26 | CN(C)CCN(C(=O)C1=COCCO1)c1nc2ccc(Cl)cc2s1.Cl | -73.1
27 | COc1ccc(CCNC(=O)c2cc3c(=O)n4ccccc4nc3n(CC3CCCO3)c2=N)cc1OC (centres unmarked) | -78.4
28 | Cc1ccc(NC(=O)N2N=C(c3ccc(F)cc3)CC2c2ccc(F)cc2)cc1 (centres unmarked) | -12.9
29 | Br.O=S(=O)(c1ccc(C2=CSC3=NCCN23)cc1)N1CCOCC1 | -5.37
30 | Cc1cc2c(cc1S(=O)(=O)NCCc1ccc(Cl)cc1)OCC(=O)N2 | -21.3
31 | CCCCN(C)CCn1c(=S)[nH]c2cc(OCC)c(OCC)cc2c1=O | -55.8
32 | CCn1c(SCC(=O)Nc2nc(-c3ccccc3)cs2)nc2c1c(=O)n(C)c(=O)n2C | 3.14
33 | CCn1c(C)c(P(=O)(N2CCOCC2)N2CCOCC2)c2ccccc21 | 10.1
34 | COCCNC(=S)N1CCC(C(=O)c2ccc3c(c2)OCCO3)CC1 | 32.7
35 | OC(COc1ccccc1)Cn1cc(Br)cn1 (centres unmarked) | 0.0411
36 | COC(=O)c1cc2ccsc2n1CC(=O)N(C)C1CCCCC1 | 10.5
37 | CCOc1ccc(N(CC(=O)OC)S(=O)(=O)c2c(C)noc2C)cc1 | 2.38
38 | C=CCn1c(=NC(=O)c2ccco2)sc2cc(C(=O)OC)ccc21 | -6

Row | SMILES | hERG current change (%, negative = inhibition) at 10uM [%]
39 | CCOC(=O)/C=C1\SCC(=O)N1CC(=O)NC(C)C | 21.2
40 | CCOC(=O)/C(C#N)=C\c1ccc(OC)c(OC)c1 | 25
41 | COc1ccc(C2C(C#N)C(C#N)N3CCCN23)cc1 (centres unmarked) | -9.92
42 | COCCN=C1Sc2nc3cc(C)c(C)cc3cc2CN1Cc1cccs1 | -0.0142
43 | COC(=O)c1c(C)oc(C)c1S(=O)(=O)N1CCOCC1 | 15.6
44 | CCO/C(C)=C1\N=C(c2ccc(Cl)cc2)OC1=O | 2.47
45 | COc1ccc(S(=O)(=O)N(C)c2c(C)n(C)n(-c3ccccc3)c2=O)cc1OC | 2.8
46 | O=C1NC(c2ccccc2)=C(c2nc3ccccc3s2)C(c2ccc(F)cc2)N1 (centres unmarked) | 5.2
47 | CCOc1ccc(-c2ccc(/C=C3/C(=N)N4C(C)=CSC4=NC3=O)o2)c([N+](=O)[O-])c1 | 2.92
48 | O=C(c1ccc2c(=O)n(C3CCCC3)c(=S)[nH]c2c1)N1CCN(C2CCCCC2)CC1 | 6.5
49 | CSc1nc(Cl)c(Cc2ccc(OC(C)C)cc2)c(N(C)C)n1 | 2.91
50 | S=C(Nc1ccccc1)N1CCn2cccc2C1c1cccnc1 (centres unmarked) | -31.1
51 | CC(C)Oc1cccc(C(=O)C2CCCN(Cc3ccc4nonc4c3)C2)c1 (centres unmarked) | -1.53
52 | Cc1ccc(/C(N)=N/OC(=O)CCc2ccccc2)cc1 | -15.2
53 | Cc1nc(NCc2ccco2)c(C#N)c2c1COC(C)(C)C2 | 9.44
54 | CCOC(=O)c1cc(CO)cc(C(=O)OCC)c1 | 13.9
55 | CC(C)C(NC(=O)C1CCC(C(C)(C)C)CC1)C(=O)NCCCN1CCCCC1 (centres unmarked) | -24.8
56 | Cc1nnc(NCc2ccco2)s1 | -6.18
